For this assay, the system named is NCI-H322M lung. Kind of assay: DTP human tumour cell line panel, 48 h.

Molecules are shown by their SMILES.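 Growth conditions: 96-well plates. Treatment: test compound, 48 hours, 5 concentrations. Analysis: linear interpolation between bracketing concentrations; unreached endpoints set to highest concentration. GI50 marks 50% less growth. TGI: concentration producing complete growth inhibition.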

Regarding `O=C(CCCCCCNC(=O)C(O)(O)C(F)(F)F)Nc1nc2ccccc2s1`, the GI50 – broadly, the concentration at which growth is held to half of that of the control – was 5.06 µM and the TGI (usually the concentration at which net growth stops) is above 29.8 µM.

The record behind these values is PubChem BioAssay (NCI).
